In PubChem BioAssay (NCI):
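Five concentrations, 48 hours, 96-well plates. GI50: concentration for 50% inhibition of growth. TGI denotes the concentration required for complete inhibition of growth.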

Test system: NCI-H322M lung
Assay: NCI-60 cell line screen, 48 h

**Q.** `CC1=C(O)C2=C(C(=O)C1=O)[C@@H](C)CC[C@@H]2[C@@H](C)C/C=C/C(C)(C)O` was tested. Which TGI did it give?
**A.** 83.7 µM

**Q.** Which results are given for `Oc1cccc2ccc(N/N=C/c3cc(CN4CCOCC4)c(O)c4ncccc34)nc12`?
**A.** GI50: 0.108 µM; TGI: 5.19 µM

**Q.** `Nc1nc(O)c2ncn([C@H]3CC[C@@H](CO)O3)c2n1` was tested. Which TGI did it give?
**A.** > 100 µM

**Q.** With `Oc1ccc2cc(Br)ccc2c1-c1c(O)ccc2ccc(Br)cc12` as the compound, how does the TGI read?
**A.** 26.4 µM

**Q.** With `CC(C)=CC(=O)N(C)C1C2CN3CCC(O2)C13` (configuration not stated) as the compound, how does the TGI read?
**A.** > 100 µM

**Q.** Which results are given for `CCN(CC)CCCCCCNc1cc(OC)cc2cccnc12`?
**A.** GI50: 2.33 µM; TGI: 5.39 µM

**Q.** How did the TGI turn out when `C[N+]12C=CC=C1C(N1CCCC1)c1scc(-c3ccccc3)c12` (configuration not stated) was run?
**A.** > 100 µM

**Q.** For `OCCN(CCO)c1ncnc2nc[nH]c12`, which TGI is on record?
**A.** > 100 µM

**Q.** With `NC1CC(=O)c2c1sc(Cl)c2Cl` (configuration not stated) as the compound, how does the TGI read?
**A.** > 100 µM

**Q.** How did the TGI turn out when `O=C(O)CCC(=O)c1ccc2sc3ccccc3c2c1` was run?
**A.** > 100 µM

**Q.** Which results are given for `c1ccc2cc(-c3n(Cc4ccc5ccccc5n4)c4ccccc4[n+]3Cc3ccc4ccccc4n3)ccc2c1`?
**A.** GI50: 0.559 µM; TGI: 1.87 µM

**Q.** With `NC(=O)C(=CNC(=S)Nc1ccccc1)C(N)=O` as the compound, how does the TGI read?
**A.** > 100 µM

**Q.** For `O=c1[nH]nc(Cc2ccccc2)n1C1CCCC1`, which TGI is on record?
**A.** > 100 µM

**Q.** How did the TGI turn out when `CC(=O)C1=CN=C2C(=O)N(c3ccccc3)N(C)C12C` (configuration not stated) was run?
**A.** > 100 µM

**Q.** How did the GI50 turn out when `COc1cc2nc(-c3cc(F)ccc3O)nc(N[C@@H]3CNC[C@H]3C(C)(C)O)c2cc1OC` was run?
**A.** 2.13 µM

**Q.** What about the TGI of the same compound?
**A.** 5.11 µM

**Q.** How did the TGI turn out when `O=[N+]([O-])/C(C(Cl)=C(Cl)Cl)=C(/Cl)SCc1ccccc1` was run?
**A.** 35.9 µM

**Q.** How did the TGI turn out when `Nc1c([N+](=O)[O-])nc(Cl)c2nncn12` was run?
**A.** > 100 µM

**Q.** Which GI50 does the source give for `C[CH2][Sn]([CH2]C)([O]C(=O)c1ccccc1OC)[O][Sn]([CH2]C)([CH2]C)[O]C(=O)c1ccccc1OC` here?
**A.** > 100 µM

**Q.** And the TGI?
**A.** > 100 µM

**Q.** With `O=C(CCC1C(=O)NC(=S)NC1=O)c1ccc2ccccc2c1` as the compound, how does the TGI read?
**A.** > 100 µM

**Q.** `CCOC(=O)C(C(=O)OCC)=C1NC2(c3ccccc3Nc3ccccc32)C(C#N)S1` (configuration not stated) was tested. Which TGI did it give?
**A.** 39.6 µM

**Q.** For `N#Cc1ccc(C=NC23CC4CC(CC(C4)C2)C3)cc1`, which TGI is on record?
**A.** > 100 µM

**Q.** `Cc1cc(C)nc(SC2=C(Nc3cc(Cl)ccc3O)C(=O)N(Cc3ccccc3)C2=O)n1` was tested. Which GI50 did it give?
**A.** 98.1 µM

**Q.** And the TGI?
**A.** > 160 µM

**Q.** With `C/C(=N/N=C(\[O-])c1ccncc1)C(F)(F)F.C/C(=N\N=C(/[O-])c1ccncc1)C(F)(F)F.[Ni+2]` as the compound, how does the GI50 read?
**A.** > 1 µM

**Q.** What about the TGI of the same compound?
**A.** > 1 µM

**Q.** For `CC1(C)CNCC(C)(OCc2ccccc2)C(=O)NC(C)(C)CNCC(C)(OCc2ccccc2)C(=O)N1` (configuration not stated), which TGI is on record?
**A.** > 10 µM

**Q.** For `COc1ccc(N2C(=O)/C(=C\c3cc(OC)c(OC)c(OC)c3)SC2c2ccccc2)cc1` (configuration not stated), which TGI is on record?
**A.** > 100 µM

**Q.** For `COC(=O)/C=C(\CC(=O)OC)n1nnnc1[C@@H]1C[C@H](COC(c2ccccc2)(c2ccccc2)c2ccccc2)[C@H]2OC(C)(C)O[C@H]21`, which TGI is on record?
**A.** > 100 µM

**Q.** Which GI50 does the source give for `COC(=O)c1cc2c(cc1Cl)SC1=NN(C)C(N(C)C)N1S2(=O)=O` (configuration not stated) here?
**A.** > 100 µM

**Q.** And the TGI?
**A.** > 100 µM

**Q.** How did the GI50 turn out when `Cc1cc(N(CCCNc2ccnc3cc(Cl)ccc23)Cc2ccco2)nc(N2CCN(C)CC2)n1` was run?
**A.** 2.65 µM

**Q.** What about the TGI of the same compound?
**A.** 9.14 µM

**Q.** `COC(=O)c1cc2c(c3c1CC(Cc1ccccc1)C3=O)CCC2` (configuration not stated) was tested. Which TGI did it give?
**A.** > 100 µM

**Q.** Which results are given for `COc1ccc(N(CC(=O)NCCC[Te]c2ccccc2)C(=O)CNC(=O)OC(C)(C)C)cc1`?
**A.** GI50: 2.28 µM; TGI: 6.56 µM

**Q.** `c1cnc2c(c1)ccc1cccnc12` was tested. Which TGI did it give?
**A.** > 100 µM

**Q.** How did the TGI turn out when `OC(C#Cc1ccccc1)(c1ccccc1)c1ccccc1` was run?
**A.** 75 µM

**Q.** Which results are given for `C[C@]12CC[C@@H]3c4cc(OC(F)F)c(OS(N)(=O)=O)cc4CC[C@H]3[C@@H]1CC[C@@H]2O`?
**A.** GI50: 0.868 µM; TGI: 29.7 µM

**Q.** How did the TGI turn out when `CCOC(=O)C(=CNc1ccc(NC2=NCC(C)S2)cc1)C(=O)OCC` (configuration not stated) was run?
**A.** > 100 µM

**Q.** For `COc1cc2c(cc1OCCCCN1CCN(C(=S)SCCC(C#N)(c3ccccc3)c3ccccc3)CC1)N=C[C@@H]1CCCN1C2=O`, which GI50 is on record?
**A.** 1.4 µM

**Q.** What about the TGI of the same compound?
**A.** 3.19 µM

**Q.** With `COc1ccc(/C=N/n2c(C)n[nH]c2=O)c(OC)c1` as the compound, how does the TGI read?
**A.** > 100 µM

**Q.** For `CC(C)(C)C1=CC(C)(n2[nH]c(=O)n(-c3ccccc3)c2=O)C=C(C(C)(C)C)C1=O`, which TGI is on record?
**A.** > 100 µM

**Q.** How did the TGI turn out when `COCCNC(=O)C1C(=O)C(=O)N(CCOC)C1=O` (configuration not stated) was run?
**A.** > 100 µM

**Q.** Which results are given for `CC1(C)CC(=O)C2=C(C1)OC(N)=C(c1nc(-c3ccccc3)cs1)C2c1ccc(Br)cc1` (configuration not stated)?
**A.** GI50: > 150 µg/mL; TGI: > 150 µg/mL

**Q.** With `c1ccc(-c2nc(N3CCNCC3)c3oc(-c4ccccc4)nc3n2)cc1` as the compound, how does the GI50 read?
**A.** 1.65 µM

**Q.** And the TGI?
**A.** 3.01 µM

**Q.** How did the GI50 turn out when `COC1=C(OC)C(=O)C(SC/C=C(\C)CCCC(C)CCCC(C)CCCC(C)C)=CC1=O` (configuration not stated) was run?
**A.** 6.24 µM

**Q.** And the TGI?
**A.** > 100 µM

**Q.** With `COC(=O)c1ccc2c(c1)S/C(=C/c1ccc3ccc4cccc5ccc1c3c45)S2` as the compound, how does the TGI read?
**A.** > 100 µM

**Q.** Which TGI does the source give for `CCOP1(=O)CC(C)=C(Cl)C(O)C1` (configuration not stated) here?
**A.** > 100 µM

**Q.** `c1cc2nnc1SCCCSc1ccc(nn1)SCCCS2` was tested. Which TGI did it give?
**A.** > 100 µM

**Q.** How did the TGI turn out when `C=C1CC(c2ccc(OCCCN3C(=O)c4ccccc4C3=O)cc2)OC1=O` (configuration not stated) was run?
**A.** 30.7 µM

**Q.** Which TGI does the source give for `O=S(=O)(c1cccc(N=C=S)c1)c1cccc(N=C=S)c1` here?
**A.** > 100 µM

**Q.** Which TGI does the source give for `O=C(c1cccs1)N(C(=S)OCCOc1ccccc1)c1ccccc1` here?
**A.** > 100 µM
